Assay results: PubChem BioAssay AID588855 (National Center for Advancing Translational Sciences (NCATS), 2011)
Out of some 410,000 compounds screened, about 5,000 (1.2%) were called active. The shares of active, inactive and inconclusive entries below differ from those in the screen. The call rests on the fitted dose curve; in most records, active means well fitted inhibition curve with a large enough effect; inconclusive means small, poorly fitted or top-dose-only effect; inactive means no such curve, though single readings can be large or run the other way. A potency beside an inconclusive call is a rough fit, not a confirmed value.

Test: qHTS for Inhibitors of TGF-b; further: nearly all actives have a fitted effect of over 65% in size
Conditions: HepG2 CAGA-GFP TGF-b/SMAD3 reporter, GFP fluorescence, 18 h, TGF-beta stimulated, 500 pg/mL final; series mostly up to 46.1 µM; activity, negative = inhibition: at the top concentration
Outline: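 TGF-beta reporter screen: HEPG2 CAGA-GFP, 1% FBS, 500 pg/mL TGF-beta final, 18 h; per-cell GFP summed per well; curves fitted and categorized by class.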
On the % scale 0 is the no-effect control and ±100 the full control effect; potency means the concentration at half of the fitted maximal effect; tags describe the fitted curve by direction and shape.

| SMILES | activity, negative = inhibition | Potency |
| --- | --- | --- |
| CCN(CC(=O)Nc1ccc(NC(C)=O)cc1)C(=O)c1ccc2ccccc2c1 | inactive: -4.69% | – |
| O=C(c1ccc(Br)o1)N1CCN(CCc2ccncc2)CC1 | inactive: 0.516% | – |
| CN(C)C(=S)N=c1ssc(=S)n1Cc1cccnc1 | – | active: 3.16 µM |
| Fc1cccc(-c2cc3nc4c(c(NCc5ccco5)n3n2)CCCC4)c1 | – | inconclusive: 35.5 µM [inhibitor, single point] |
| Cc1ccc(CCNC(=O)c2ccc(CSCc3ccccc3C)o2)cc1 | – | inconclusive: 35.5 µM [inhibitor, single point] |
| Cc1ccc(NC(=S)NNc2ncc(C(F)(F)F)cc2Cl)cc1 | – | inconclusive: 22.4 µM [inhibitor, single point] |
| CC(C(=O)N1CCc2ccccc21)N1CCN(c2ccccn2)CC1 (stereo unspecified) | – | inconclusive: 22.4 µM [inhibitor, single point] |
| COc1ccc(C(=O)NC2CC(C)(C)Cc3c2cnn3-c2ccccc2C)c(OC)c1OC (stereo unspecified) | inactive: -11.1% | – |
| CC(CCc1ccccc1)NCC(O)COc1ccccc1 (stereo unspecified) | inactive: -1.69% | – |
| O=[N+]([O-])c1ccc(/C=N/N=C/c2ccc([N+](=O)[O-])o2)o1 | – | inconclusive: 3.16 µM [inhibitor, full curve] |
| CCOC(=O)c1c(C)sc2c1N(C(=O)CN(CC)CC)c1cc(Cl)ccc1S2 | – | inconclusive: 35.5 µM [inhibitor, single point] |
| Cc1ccc(NC(/C=C/N(C)C)=C/C(=O)C(F)(F)F)c(C)c1 | – | active: 20 µM |
| COc1ccccc1CNC(=O)CS(=O)Cc1nc(-c2ccc(OC)c(OC)c2)oc1C (stereo unspecified) | – | inconclusive: 12.6 µM [inhibitor, single point] |
| COc1ccccc1Nc1c2c(nc3ccc(NC(=O)c4cccc(F)c4)cc13)CCCC2 | – | inconclusive: 7.08 µM [inhibitor, partial curve, poor fit] |
| N#Cc1cc(N)c(Nc2ccccc2)cc1C#N | – | inconclusive: 20 µM [inhibitor, partial curve, poor fit] |
| CN1OC[C@@H]2CN(Cc3ccc4c(c3)OCO4)[C@H](c3ccc(N4CCCCC4)cc3)C[C@@H]21 | – | inconclusive: 14.1 µM [inhibitor, single point] |
| CCOc1ccc(C(=O)NC(C(=O)NCCc2ccc(S(N)(=O)=O)cc2)C(C)C)cc1 (stereo unspecified) | – | inconclusive: 0.794 µM [inhibitor, full curve, poor fit] |
| Cc1cccc(NC(=S)N2CCC(c3nc4ccccc4s3)CC2)c1 | – | inconclusive: 20 µM [inhibitor, partial curve, poor fit] |
| Cc1occc1C(=O)N1CCC2(CCCN(Cc3ccc(F)c(F)c3)C2)C1 (stereo unspecified) | – | inconclusive: 10 µM [inhibitor, partial curve] |
| CCCN(CCC)c1ccc(/C=C/c2sc3ccccc3[n+]2CCCCI)cc1 | – | active: 6.31 µM |
| O=C(NC1CCCC1)c1ccc2c(c1)N(Cc1ccccc1Cl)C(=O)c1ccccc1S2 | – | inconclusive: 6.31 µM [inhibitor, partial curve, poor fit] |
| CC1Cc2cc(-c3csc(NC(=O)Cc4ccccc4)n3)ccc2N1S(C)(=O)=O (stereo unspecified) | – | inconclusive: 14.1 µM [inhibitor, partial curve, poor fit] |

| SMILES | activity, negative = inhibition | Potency |
| --- | --- | --- |
| CCOC(=O)N1CCN(C(=O)c2cc(COc3cccc(C(F)(F)F)c3)on2)CC1 | inactive: 0% | – |
| CC(=Nc1ccccc1O)c1sc2ccccc2c1O | – | inconclusive: 11.2 µM [inhibitor, partial curve, poor fit] |
| CCC(C)NC(=O)N[C@@H](Cc1ccccc1)C(=O)O (stereo partly specified) | – | inconclusive: 25.1 µM [inhibitor, single point] |
| COc1ccc(-n2c(O)c(/C=N/Nc3nc(C)cc(C)n3)c3ccccc3c2=O)cc1OC | – | inconclusive: 35.5 µM [inhibitor, single point] |
| CN1CCN(C(=O)Nc2cccc(Cl)c2)c2cccnc21 | – | active: 15.8 µM |
| CCOC(=O)c1nnc(-c2ccc(C)cc2)nc1Oc1ccccc1Cl | – | inconclusive: 7.08 µM [inhibitor, partial curve, poor fit] |
| CC(C)c1ccc(NC(=O)CSc2nc(=O)n(Cc3cccnc3)c3c2CCC3)cc1 | – | active: 11.2 µM |
| COc1ccc(-c2noc(CSc3nnc(-c4ccc(Cl)cc4)n3C)n2)cc1OC | – | inconclusive: 10 µM [inhibitor, partial curve, poor fit] |
| COc1ccc(CCNC(=O)Cn2cc(S(=O)(=O)Cc3cccc(Cl)c3)c3ccccc32)cc1OC | – | inconclusive: 25.1 µM [inhibitor, single point] |
| Nc1ccc(-c2cc3ccccc3[nH]2)cc1 | – | inconclusive: 15.8 µM [inhibitor, single point] |
| Cc1ccc(C(C)C)c(OC/C(O)=C(\C#N)c2nc3ccccc3[nH]2)c1 | – | inconclusive: 31.6 µM [inhibitor, single point] |
| COc1ccc(OC)c(N(CC(=O)NC2CCCCCC2)S(=O)(=O)c2ccc(C)cc2)c1 | – | inconclusive: 35.5 µM [inhibitor, single point] |
| CC(=O)Nc1ccc(S(=O)(=O)NC2=C(N3CCN(C)CC3)C(=O)c3ccccc3C2=O)cc1 | – | inconclusive: 25.1 µM [inhibitor, single point] |
| CCOc1ccccc1NC(=O)CSc1nc2c(oc3ccccc32)c(=O)n1Cc1ccco1 | – | inconclusive: 0.251 µM [inhibitor, full curve, poor fit] |
| Nc1ccc(C(=O)OCC(=O)N2CCc3ccccc3C2)cc1[N+](=O)[O-] | inactive: -9.71% | – |
| COc1ccc(C(C(=O)Nc2ccc(C(C)C)cc2)N(Cc2ccco2)C(=O)CC2NC(=O)NC2=O)cc1 (stereo unspecified) | – | inconclusive: 22.4 µM [inhibitor, single point] |
| Cc1onc(-c2ccccc2Cl)c1C(=O)N(C)C1CCCCC1 | – | inconclusive: 35.5 µM [inhibitor, single point] |
| Cc1c(C(=O)NCc2cccc(C(F)(F)F)c2)sc(=O)n1Cc1ccc(F)cc1 | – | inconclusive: 28.2 µM [inhibitor, single point] |
| CCN1C(=O)N[C@@H](c2cccc(F)c2)C(C(=O)OC)=C1C | – | inconclusive: 35.5 µM [inhibitor, single point] |
| O=c1c([N+](=O)[O-])cccn1Cc1ccc(F)cc1Cl | – | inconclusive: 35.5 µM [inhibitor, single point] |
| C#Cc1ccc([C@@H]2C=C(C(=O)N3CCN(Cc4ccc5c(c4)OCO5)CC3)O[C@H](OCC)[C@H]2CCCO)cc1 | – | inconclusive: 35.5 µM [inhibitor, single point] |
| CCOC(=O)c1sc2ccccc2c1S(=O)(=O)N1CCN(c2ccccc2)CC1 | inactive: -19.3% | – |

| SMILES | activity, negative = inhibition | Potency |
| --- | --- | --- |
| COCCCn1c(O)c(/C=C2\N=C(C#N)C(=Nc3ccc(C)cc3)O2)sc1=S | – | inconclusive: 4.47 µM [inhibitor, full curve] |
| COc1ccc(OCCN2CCC(C(=O)NC(c3ccc(F)cc3)c3ccc4ccccc4n3)CC2)cc1 (stereo unspecified) | – | active: 20 µM |
| COCCN(C(=O)COC(=O)Cc1c[nH]c2ccccc12)c1c(N)n(Cc2ccccc2)c(=O)[nH]c1=O | – | inconclusive: 35.5 µM [inhibitor, single point] |
| Cc1cccc(C)c1NC(=S)NC(=O)c1cccc(Cl)c1 | inactive: 2.99% | – |
| COc1ccc(Br)cc1C1NC(c2ccc3c(c2)OCO3)=CC(c2cc(Cl)ccc2O)N1 (stereo unspecified) | – | inconclusive: 11.2 µM [inhibitor, partial curve, poor fit] |
| O=C(O)c1ccc(N2C(=O)CC(N3CCN(c4cccc(C(F)(F)F)c4)CC3)C2=O)cc1 (stereo unspecified) | inactive: 8.29% | – |
| CCCCCNC(=O)c1[nH]c(C(F)(F)F)nc1-c1ccccc1 | – | inconclusive: 11.2 µM [inhibitor, partial curve] |
| COc1ccc(-c2cc(C(=O)N/N=C(\C)c3cccnc3)c3cc(C)ccc3n2)cc1OC | – | inconclusive: 17.8 µM [inhibitor, single point] |
| Cn1cc(/C=C2\SC(=O)N(c3ccc(O)cc3)C2=O)c2ccccc21 | – | inconclusive: 35.5 µM [inhibitor, single point] |
| COc1ccccc1/C=C/c1nc2ccccc2c(=O)o1 | inactive: 0.865% | – |
| CNC[C@@H]1Oc2ccc(NC(=O)Nc3c(C)noc3C)cc2CC(=O)N([C@H](C)CO)C[C@H]1C | inactive: 0.35% | – |
| COc1ccc(CNC(=O)c2c(Nc3ccccc3C)sc(C(=O)c3ccccc3)c2N)cc1 | – | inconclusive: 20 µM [inhibitor, partial curve, poor fit] |
| O=c1[nH]c2cc(Cl)c(Cl)cc2o1 | – | inconclusive: 17.8 µM [inhibitor, single point] |
| Cn1cccc1/C=N/NC(=O)c1cccc(OC(F)(F)C(F)F)c1 | inactive: 25.1% | – |
| COc1cc2[nH]c(=O)n(CCCC(=O)NCc3ccccc3)c(=O)c2cc1OC | inactive: -5.79% | – |
| CCc1ccc(NC(=O)CCCc2nc(-c3ccco3)no2)cc1 | inactive: 0.196% | – |
| O=C(c1ccc(Cl)cc1)N1CCc2c([nH]c3ccccc23)C1C(F)(F)F (stereo unspecified) | – | inconclusive: 25.1 µM [inhibitor, single point] |
| Nc1nnc(-c2ccccc2)c(-c2ccccc2)n1 | inactive: -4.4% | – |
| CCOC(=O)N1CCN(Cc2nc(Cc3cccc(F)c3)no2)CC1 | – | inconclusive: 35.5 µM [inhibitor, single point] |
| CCOC(=O)c1c(NC(=O)CCS(=O)(=O)c2ccccc2)sc2c1CCN(C(C)C)C2 | – | inconclusive: 28.2 µM [inhibitor, single point] |
| CCOC(=O)C1(Cc2ccc(Cl)cc2)CCN(C(=O)c2sc(C)nc2C)CC1 | – | inconclusive: 15.8 µM [inhibitor, single point] |
| Cc1cc(N2C(=O)C(O)=C(C(=O)c3cc4ccccc4o3)C2c2ccc(OC(C)C)cc2)no1 (stereo unspecified) | inactive: -5.13% | – |
